# According to the supplement of paper PMC3334620:
# In all, about 33,000 sequences were measured (“E-score (-0.5 to 0.5)”: median about -0.021, highest 2% from about 0.32 on). The list shows a part of the results.
# Molecular target: T1, Zap1 (UniProt P47043)
# T1 sequence: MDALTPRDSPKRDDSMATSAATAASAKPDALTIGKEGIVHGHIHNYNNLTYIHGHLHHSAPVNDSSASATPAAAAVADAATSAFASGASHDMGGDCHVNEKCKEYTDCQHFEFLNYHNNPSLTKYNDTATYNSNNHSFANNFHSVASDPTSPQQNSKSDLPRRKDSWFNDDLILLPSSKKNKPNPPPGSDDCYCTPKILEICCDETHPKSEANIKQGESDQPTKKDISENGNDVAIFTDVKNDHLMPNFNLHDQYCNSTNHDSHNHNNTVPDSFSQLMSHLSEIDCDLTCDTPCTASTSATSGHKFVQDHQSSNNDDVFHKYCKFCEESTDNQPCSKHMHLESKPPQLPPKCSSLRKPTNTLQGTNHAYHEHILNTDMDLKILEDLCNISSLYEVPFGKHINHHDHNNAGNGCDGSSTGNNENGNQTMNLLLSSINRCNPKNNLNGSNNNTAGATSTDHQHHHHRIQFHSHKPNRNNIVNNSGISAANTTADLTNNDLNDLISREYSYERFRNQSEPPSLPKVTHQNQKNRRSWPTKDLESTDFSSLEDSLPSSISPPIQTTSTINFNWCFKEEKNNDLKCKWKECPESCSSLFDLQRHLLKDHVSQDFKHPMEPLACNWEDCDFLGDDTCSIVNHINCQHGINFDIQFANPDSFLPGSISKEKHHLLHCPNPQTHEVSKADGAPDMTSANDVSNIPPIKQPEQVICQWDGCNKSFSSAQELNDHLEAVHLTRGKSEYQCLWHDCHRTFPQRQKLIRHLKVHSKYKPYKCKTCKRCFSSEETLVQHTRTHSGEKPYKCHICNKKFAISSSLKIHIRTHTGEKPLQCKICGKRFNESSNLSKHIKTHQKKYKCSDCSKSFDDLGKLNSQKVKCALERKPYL
# Assay: PBM E-score (8-mer binding enrichment) (E-score (-0.5 to 0.5)); higher = stronger / more preferred TF binding; most listed sequences are background and not binding sites
# Details: protein concentration: 200 nM; construct: GST-full length
# In short: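 PURExpress in vitro transcription/translation supplied GST-tagged yeast transcription factors, either full-length or DNA-binding domain. Applied at about 100-200 nM to universal all-10-mer Agilent arrays double-stranded by primer extension, the bound protein was detected with fluorescent anti-GST. E-scores, modified Wilcoxon-Mann-Whitney statistics, were given by the Universal PBM Analysis Suite to ungapped eight-base words pooled with their reverse complements after masliner normalisation.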
row,Sequence,PBM E-score
1,GTAGAAGA,-0.0718
2,CATTTAGC,0.00568
3,AATACGAA,0.0771
4,CCGCCCTA,-0.222
5,AACAGCTA,-0.123
6,GAAGAGAC,-0.152
7,CACAACCC,0.414
8,GCAAAGGC,-0.323
9,CACATAAG,-0.146
10,AGTATACT,0.0859
11,CACCGGGA,-0.1
12,ATTAGAAA,0.0663
13,ACGCCGAT,-0.186
14,GAGCGTAA,-0.0937
15,AGCCAACT,-0.159
16,AACTGATT,0.00683
17,GGAAGACC,0.0824
18,AGCGTAAC,0.199
19,GACGAGTC,-0.169
20,CCGTTACG,-0.111
21,AAAGTTGG,0.00901
22,GGTGCCAC,-0.0258
23,TAATGATA,0.157
24,AAAATGAT,0.181
25,ACGCTCTA,-0.245

row,Sequence,PBM E-score
1,CTTTCCCA,0.0569
2,CGCTGCGA,-0.0742
3,AGCGCAAG,-0.108
4,AGTGGGTC,0.0712
5,CTCCGTCA,-0.0988
6,AGGCACCT,-0.0554
7,AGGTTGCC,0.088
8,AATCTGCT,-0.108
9,CTCAATCA,0.0704
10,CCTGGCCC,-0.0746
11,CTAAGTAA,-0.0123
12,ACGTAACG,-0.248
13,CCTGCCAC,-0.114
14,TCCGACAA,-0.0579
15,TCAAAACA,0.091
16,CTTTTCGC,0.124
17,AATTTGTC,-0.0308
18,ATGCTCTA,-0.192
19,CGGGTGAG,-0.28
20,TATAAGAA,0.0502
21,GAATGAAA,0.112
22,CTTATAAG,-0.0614
23,CGGTGTCA,-0.00368
24,ACTAGATG,-0.0116
25,AAAGCTCC,-0.205

row,Sequence,PBM E-score
1,AACACTCC,-0.112
2,CCCCGGCG,-0.277
3,ACCCGCTG,0.0639
4,AACGGGTG,0.0873
5,CTCCGACC,-0.179
6,CAACTCCG,-0.123
7,AGCTAAGC,-0.0524
8,CTCTTGCC,-0.141
9,AACGTAGA,-0.0363
10,ATCCGCAA,0.0226
11,TCACTCAA,-0.0396
12,AAACGGGC,-0.141
13,GCTTACCC,-0.0481
14,AAGTATGC,-0.251
15,ATATTTCG,0.202
16,ATGCCGTC,-0.169
17,GCTTAATA,0.0843
18,ATGGTCTG,0.00818
19,CATTCGAA,0.0609
20,ATTCGTTG,-0.00472
21,GATGGGAC,-0.22
22,GATGTAAC,0.0633
23,CGGGAGCC,-0.273
24,CCTGTCCG,-0.00022
25,CCTGCTTC,-0.275

row,Sequence,PBM E-score
1,CATATGCA,-0.129
2,GTGCAAAC,-0.106
3,GGAAGGCC,-0.0868
4,ACCCAAAG,0.271
5,GTGTAGCA,-0.201
6,AGCTTAGA,-0.0413
7,AGGTGATA,0.0812
8,CGTCAACA,-0.0717
9,CAAGAGTG,0.0351
10,AGCTTACT,-0.0542
11,TACGAAGA,-0.129
12,AAGGCAGC,-0.224
13,ACATATTG,0.00055
14,CACCCGGG,0.129
15,CCAGAAAG,0.0214
16,CAGCAACA,0.0517
17,ATCAATCG,0.0405
18,CCGGGCAC,-0.145
19,AGGCACCC,-0.0486
20,CGATGGTC,-0.0594
21,CCTTGTAG,0.0628
22,ATTCGGAG,-0.00596
23,CATAATGA,0.0451
24,GGGCCCGA,-0.064
25,GAAGTCAC,-0.296

row,Sequence,PBM E-score
1,CTCTCAAG,-0.137
2,ATTGTGCA,0.0088
3,TATTTACA,0.0342
4,CTCCCCCC,-0.372
5,ATCGACTG,-0.183
6,AGCTCTTC,-0.123
7,AAGACAAT,-0.0607
8,CCTTCTAC,-0.0634
9,AATGTACG,-0.0399
10,AGTATAGA,0.0656
11,ACAGTTCC,0.0671
12,GTGCTTCA,0.0767
13,CGCGGCCG,0.065
14,ACGCCCCA,-0.0338
15,CTTCTTGC,-0.0598
16,GGGAAGCA,-0.19
17,ACACTGGC,-0.0599
18,CGCCAGCC,-0.136
19,CGGCGGAC,0.0131
20,CGTTCCAG,-0.114
21,TACAGAGA,-0.152
22,CCAGAGAA,-0.0696
23,GCAACTGC,-0.207
24,ACTTGGGG,0.0677
25,AATGCCCA,-0.0715

row,Sequence,PBM E-score
1,GCCCATTA,-0.0354
2,ATCTCGGC,0.0552
3,GACAAACC,0.124
4,CAAAAAAC,0.277
5,ACAATAAG,0.114
6,GATCCACA,-0.117
7,TGCCGGAA,0.0388
8,AAATTCCG,0.0247
9,GCTGTTTA,0.104
10,ACACTATC,-0.0374
11,GACGACTA,-0.19
12,TCACACCA,0.0411
13,CAGAATGC,-0.126
14,CCTCTCCA,-0.209
15,AGCCGGTC,-0.176
16,GCCCACGC,-0.229
17,CGTCTTCA,-0.126
18,ACGGGTGA,-0.11
19,CATAATTC,0.0244
20,ACGAGTCA,-0.0811
21,AAATGTAC,0.147
22,AGTGATCC,-0.0223
23,CGAAGAAA,-0.0368
24,TAAACTAA,0.239
25,CCGGGAGA,0.0106

row,Sequence,PBM E-score
1,CCCCAGTA,-0.0431
2,CAATTTAC,0.164
3,GTCTTAAC,0.0858
4,ATAGGCTC,-0.182
5,CCAAGAGC,-0.0126
6,CCGAAACG,0.0174
7,CGTAGTGC,-0.209
8,GATATGCC,-0.235
9,CGAGAACA,-0.0673
10,GGAAGCCA,-0.444
11,CCGTGGTC,0.0847
12,CCGCACCA,-0.0775
13,CAGATAGA,-0.123
14,CCGAGCAA,-0.215
15,AGCTCACT,-0.157
16,CCAGCCAA,-0.0938
17,AGTTCGTG,0.038
18,CGTTGCTA,-0.0543
19,CGTGTTGA,-0.0441
20,CTTAACGA,-0.00709
21,AGCTATCG,-0.199
22,CGCGGCAA,-0.0744
23,GTACTTGA,-0.147
24,CCTCGTAG,0.135
25,ACTACATG,0.04

row,Sequence,PBM E-score
1,ATTTCATA,0.208
2,GTCAGGCA,-0.139
3,CAGTCGGC,-0.171
4,ACAAAGAG,-0.217
5,CGGATACG,-0.0689
6,ATCTACGG,-0.103
7,CAGTGATG,-0.142
8,AAAAAATC,0.126
9,CCGCTGAG,-0.208
10,GGGGGGAC,-0.28
11,ACTTGGAC,0.0174
12,ACCTTCTC,0.03
13,ACCTGCCG,-0.0789
14,TCAATGAA,0.00579
15,AGACATAG,-0.0994
16,AGCGGCTA,-0.0319
17,ATTGCGCC,-0.114
18,CTATGTGA,0.00092
19,CGAACATA,0.0418
20,AGAACACA,0.0853
21,AGGTTAGC,0.23
22,CAGTCAAG,0.0177
23,GCACCTAC,-0.157
24,TAGACCAA,0.0735
25,GGATCCCA,-0.0539

row,Sequence,PBM E-score
1,TACCAGAA,0.26
2,AGAAATGA,0.0828
3,ATGACCCC,0.385
4,ACCGACTC,-0.0769
5,CGTTCGAC,-0.255
6,CTATTACC,0.129
7,ACGGGTAC,0.231
8,GGGCTGAC,-0.0973
9,AAGTAGAG,-0.203
10,TAAAATGA,0.204
11,CCAGTGGC,-0.0278
12,AAGGTCGG,0.174
13,AATAAGTG,0.0312
14,AGCTTCTA,-0.283
15,ACACATCT,0.00083
16,CCCACTAA,0.173
17,CGTGGCAC,-0.0778
18,CCCAGCTC,-0.26
19,GAATCCTC,-0.189
